About 1,700 (3.3%) of roughly 52,000 compounds were called active. Rule as the data show it: active = survival mostly below about 52% (no sharp cut-off); inactive = mostly above about 56%. The list shows a part of the results.
system: Wild type; assay: growth inhibition of S. aureus wild type versus tarO mutant, primary screen, teichoic acid synthesis inhibitors, RN4220, OD600 (AID 463173); settings: S. aureus RN4220 wild type/DeltatarO growth, OD600, 18 h, hits give low values, screened at 18.75 µg/mL (by protocol)

Row | SMILES | survival
1 | Cc1ccc(C)c(N2CCN(C(=O)NCc3noc4ccccc34)CC2)c1 | inactive: 85%
2 | COC(=O)c1ccc2c(c1)N(CC(=O)Nc1ccc(C)c(C)c1)C(=O)c1ccccc1S2 | inactive: 78%
3 | CCS(=O)(=O)N1CCc2cc(C(=O)Nc3cc(C)cc(C)c3)ccc21 | inactive: 82%
4 | Cc1ccc2nc(Nc3cccc(C(F)(F)F)c3)c3nnnn3c2c1 | inactive: 69%
5 | COc1ccc2oc(=O)c(C(=O)NCc3ccco3)cc2c1 | inactive: 106%
6 | Cc1cc2oc(C(=O)Nc3sc4c(c3C(=O)NCC3CCCO3)CCCC4)cc(=O)c2cc1C (stereo not drawn) | inactive: 87%
7 | Cn1c(=O)c2c(-c3ccc(Cl)cc3)ccnc2n(C)c1=O | inactive: 68%
8 | COc1ccc(OC)c(CCNc2nc3cc(OC)c(OC)cc3c3nc(-c4cccnc4)nn23)c1 | inactive: 123%
9 | CCCCN(CC)CCNC(=O)CN1C(=O)COc2ccc(S(=O)(=O)N3CCOCC3)cc21 | inactive: 79%
10 | O=S(=O)(NCC(c1ccco1)N1CCN(c2ccc(F)cc2)CC1)c1cc(F)ccc1F (stereo not drawn) | inactive: 117%
11 | CCc1c(C)sc(NC(=O)c2cc(-c3ccc(OC)c(OC)c3)on2)c1C#N | inactive: 152%
12 | CC(C)(C)n1cnc2cc(N=Cc3ccccc3O)ccc21 | inactive: 112%
13 | COc1ccc(S(=O)(=O)N2CCCCC2)cc1C(=O)NC1CCS(=O)(=O)C1 (stereo not drawn) | inactive: 78%
14 | CCOc1ccccc1CNC(=O)CN1C(=O)c2cccnc2Oc2ccc(Cl)cc21 | inactive: 72%
15 | Cn1cccc1C(=O)c1cccc(Br)c1 | inactive: 109%
16 | CCS(=O)(=O)N1CCC2(CC1)OC(=O)C(C)=C2C(=O)NCc1ccc(OC)c(OC)c1 | inactive: 70%
17 | O=C(Nc1ccccc1)c1ccc(Cl)c(S(=O)(=O)Nc2ccccc2)c1 | inactive: 68%
18 | Cc1ccc(C(=O)c2cn(Cc3ccccc3)c3c(F)cc(F)cc3c2=O)cc1 | inactive: 89%
19 | Cc1cc(Nc2cccc(Cl)c2)nc2ccc(NC(=O)Cc3c(F)cccc3Cl)cc12 | inactive: 79%
20 | CCC1Oc2ccccc2N(CC(=O)NCc2ccccc2)C1=O (stereo not drawn) | active: -3%

Row | SMILES | survival
21 | COc1ccc(N2CCN(C(=O)c3cn(C)c4ccc(S(=O)(=O)N5CCOCC5)cc4c3=O)CC2)cc1 | inactive: 79%
22 | COc1ccc2nc(N(Cc3cccnc3)C(=O)c3ccc(Cl)cc3)sc2c1 | inactive: 72%
23 | Cn1c(=O)c(=O)n(C)c2cc(N3CCCC3)c(NC(=O)c3ccccc3Cl)cc21 | inactive: 86%
24 | CC(NC(=O)/C=C/c1ccccc1)C1COc2ccccc2O1 (stereo not drawn) | inactive: 109%
25 | C/C(=N/NC(=O)c1c(N)no[n+]1[O-])c1cccs1 | inactive: 98%
26 | CCn1c(=O)c2sccc2n2c(CCCC(=O)Nc3ccc(Oc4ccccc4)cc3)nnc12 | inactive: 94%
27 | CCOc1ccccc1CNC(=O)CN1C(=O)c2cccnc2Oc2ccc(C)cc21 | inactive: 136%
28 | O=C(Nc1ccc(Br)cc1)c1cc(S(=O)(=O)N2CCc3ccccc32)ccc1F | inactive: 131%
29 | CCn1c(N2CCN(S(C)(=O)=O)CC2)nc2ccccc21 | inactive: 95%
30 | CCN1C(=O)C2(c3ccccc31)c1c(oc3ccccc3c1=O)C(=O)N2CCOC (stereo not drawn) | inactive: 85%
31 | COc1ccc(OC)c(NC(=O)N2CCC3(CC2)Oc2ccccc2C(=O)N3Cc2ccccc2F)c1 | inactive: 79%
32 | Cc1ccc(N(O)C(=O)Nc2ccccc2)cc1 | inactive: 119%
33 | COc1ccc(-c2noc(CC(=O)N(C)c3cc(Cl)c(OC)cc3OC)n2)cc1 | inactive: 80%
34 | CCCCN(C)C(=O)c1ccc2c(c1)NC(=O)C(CC(C)C)N2 (stereo not drawn) | inactive: 77%
35 | Cc1ccc(NC(=O)c2nc(S(C)(=O)=O)ncc2N(Cc2ccco2)Cc2ccco2)cc1 | inactive: 91%
36 | Cc1c(C(=O)Nc2ccccc2F)sc2nc3n(c(=O)c12)CCC3 | inactive: 83%
37 | Cc1cc(C)cc(OCC(=O)N(Cc2ccco2)Cc2ccccc2Cl)c1 | inactive: 82%
38 | COc1ccc(NC(=O)CN2C(=O)C(=O)c3ccccc32)c(OC)c1 | inactive: 70%
39 | Cc1ccc(-c2nc(-c3cccs3)c(-c3cccs3)[nH]2)cc1 | inactive: 76%
40 | CN(Cc1ccccc1)c1nc2c(S(=O)(=O)c3ccccc3)nnn2c2ccsc12 | inactive: 87%

Row | SMILES | survival
41 | Cc1ccc(S(=O)(=O)c2nnn3c2nc(NC2CCCCC2)c2sccc23)cc1C | inactive: 80%
42 | COc1ccc(CNC(=O)CCc2c(C)nc3c4cccnc4nn3c2C)cc1 | inactive: 89%
43 | CCc1ccccc1NC(=O)Cn1nnc(C(=O)NCc2cccc(OC)c2)c1N | inactive: 79%
44 | COc1ccc(CC(=O)Nc2nnc3n2CCS3)cc1OC | inactive: 91%
45 | COc1ccc(C)cc1-n1c(SCC(=O)NCc2ccco2)nc2c([nH]c3ccccc32)c1=O | inactive: 77%
46 | Cc1ccc(NC(=O)Cn2c(=O)n(CC(=O)NCCc3ccccc3)c(=O)c3ccccc32)cc1 | inactive: 82%
47 | CC1CCc2nc3ncn(Cc4cccc(F)c4)c(=O)c3cc2C1 (stereo not drawn) | inactive: 66%
48 | O=C(Nc1ncc(Cc2ccccc2Cl)s1)c1ccc2c(c1)CC(c1ccccc1)OC2=O (stereo not drawn) | inactive: 79%
49 | CNC(=O)C1CCC(Cn2c(=O)c3sccc3n(CC(=O)Nc3ccccc3)c2=O)CC1 (stereo not drawn) | inactive: 63%
50 | CCCCN(CC)CCCNC(=O)c1nn(-c2ccc(OC)cc2)c(=O)c2c1c1ccccc1n2C | inactive: 74%
51 | Cc1ccc(CCNC(=O)CCCn2c(=O)c3cccn3c3ccc(F)cc32)cc1 | inactive: 41%
52 | CCCCN(CC)CCCNC(=O)c1sc2nc3n(c(=O)c2c1C)CCCCC3 | inactive: 87%
53 | COCCNC(=O)c1cc(-c2cccc(Cl)c2)on1 | inactive: 136%
54 | O=C(CN1C(=O)COc2ccc(Cl)cc21)Nc1cccc(C(=O)O)c1 | inactive: 67%
55 | CCOC(=O)c1ccc(N2C(=O)c3n[nH]c(C)c3C2c2ccc(CC)cc2)cc1 (stereo not drawn) | inactive: 82%
56 | Cc1cc(=O)n(Cc2ccccc2)c(=O)n1Cc1ccccc1 | inactive: 94%
57 | CCc1ccccc1NC(=O)Cn1nc(C)c2nn(-c3ccc(Cl)cc3)c(C)c2c1=O | inactive: 124%
58 | COc1cc2[nH]c(=O)n(CCCC(=O)N(C)Cc3ccccc3)c(=O)c2cc1OC | inactive: 68%
